# Source: PMC4336329 (PLoS ONE, 2015)
# The campaign covered roughly 310,000 compounds. About 14,000 (4.5%) showed an effect of 50% or more. The effect is printed as a negative number. Some of the results follow.
# Target: human ether-à-go-go-related gene (hERG) potassium channel (human, UniProt Q12809)
# Assay: primary screen, population patch clamp on CHO cells stably expressing hERG
# 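Note: peak tail current of the secondary pulse compared with the same well before compound.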
# Chain of human ether-à-go-go-related gene (hERG) potassium channel (Q12809 whole entry, looked up): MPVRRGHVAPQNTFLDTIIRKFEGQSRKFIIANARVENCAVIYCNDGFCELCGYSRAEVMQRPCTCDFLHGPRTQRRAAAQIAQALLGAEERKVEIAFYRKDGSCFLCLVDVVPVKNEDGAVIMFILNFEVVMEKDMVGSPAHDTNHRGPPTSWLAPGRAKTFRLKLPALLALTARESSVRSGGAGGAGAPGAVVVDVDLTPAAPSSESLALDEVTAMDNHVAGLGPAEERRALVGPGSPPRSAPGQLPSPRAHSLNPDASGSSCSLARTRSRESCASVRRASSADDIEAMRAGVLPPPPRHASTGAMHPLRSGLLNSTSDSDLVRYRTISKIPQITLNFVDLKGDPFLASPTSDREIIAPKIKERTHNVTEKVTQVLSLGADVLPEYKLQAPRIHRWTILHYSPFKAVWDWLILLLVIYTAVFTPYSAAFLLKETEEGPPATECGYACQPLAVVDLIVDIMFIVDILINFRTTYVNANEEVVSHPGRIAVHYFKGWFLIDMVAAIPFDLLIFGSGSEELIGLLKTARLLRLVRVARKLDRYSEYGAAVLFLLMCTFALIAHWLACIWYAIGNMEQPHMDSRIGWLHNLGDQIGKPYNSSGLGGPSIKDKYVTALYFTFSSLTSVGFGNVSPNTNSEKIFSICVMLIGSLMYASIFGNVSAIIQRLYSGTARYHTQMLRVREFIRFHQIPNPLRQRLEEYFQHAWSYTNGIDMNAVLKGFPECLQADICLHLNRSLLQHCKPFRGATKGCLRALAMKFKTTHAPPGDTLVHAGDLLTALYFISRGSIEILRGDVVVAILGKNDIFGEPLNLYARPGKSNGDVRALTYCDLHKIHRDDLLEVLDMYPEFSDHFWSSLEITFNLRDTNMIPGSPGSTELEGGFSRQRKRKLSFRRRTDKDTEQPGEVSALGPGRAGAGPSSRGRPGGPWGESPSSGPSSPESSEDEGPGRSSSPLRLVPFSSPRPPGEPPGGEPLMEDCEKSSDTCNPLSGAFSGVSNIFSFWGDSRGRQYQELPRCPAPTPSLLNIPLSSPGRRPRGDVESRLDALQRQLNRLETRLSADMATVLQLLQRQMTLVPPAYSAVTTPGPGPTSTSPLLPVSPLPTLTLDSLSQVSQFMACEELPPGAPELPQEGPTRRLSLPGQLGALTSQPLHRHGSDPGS
row,SMILES,"hERG current change (%, negative = inhibition) at 10uM [%]"
1,COC(=O)NNC1=CC(=O)CC(C)(C)C1,23.9
2,O=[N+]([O-])c1ccccc1S(=O)(=O)Nc1nc2ccccc2s1,-15.4
3,CC(C)Oc1ccc(S(=O)(=O)N2CCOCC2)cc1NC(=O)CC1CCCC1,-7.52
4,C=CCc1cc(C=O)cc(OCC)c1OCc1ccc(Cl)cc1,31.4
5,CCN(CC1CCCN(CCc2cccc(OC)c2)C1)C(=O)c1ccoc1 (stereo not shown),-70.7
6,COCCCn1c(C23CC4CC(CC(C4)C2)C3)n[nH]c1=S,-5.2
7,Cc1ccc(C(NC(=O)N2CCCC2)C(Cl)Cl)cc1F (stereo not shown),-39.2
8,COc1ccc(OC)c(NC(=O)c2nnn(CC(=O)Nc3ccc4c(c3)OCO4)c2N)c1,5.99
9,Cc1ccccc1C(=O)N1CCN(c2ccc(NC(=O)Cc3ccccc3)cc2)CC1,-5.38
10,Cc1ccccc1Nc1nnc(SCC2CCCCO2)s1 (stereo not shown),-8.78
11,Cc1cc2c3c(c1C)C(=O)C(=O)N3C(C)(C)CC2C (stereo not shown),6.5
12,Cc1ccccc1C(=O)N/N=C1/SCC(=O)N1Cc1ccccc1,-29.8
13,CC(=O)c1ccccc1NC(=O)COC(=O)/C=C/c1ccc(OC(F)F)cc1,16.2
14,O=C(Cc1ccc(Cl)cc1)Nc1ccc(S(=O)(=O)Nc2cnc3ccccc3n2)cc1,21.1
15,Cc1ccccc1NC1=C(Cl)C(=O)N(C2CCCCC2)C1=O,-1.23
16,O=C1c2ccccc2C2=Nc3ccccc3SC(c3ccc(Cl)cc3)C12 (stereo not shown),5.54
17,CCn1c(NC)cc(=O)n(C)c1=O,11.2
18,CC(=O)Nc1ccc(NC(=O)CN2CCN(c3ccccn3)CC2)cc1,13.3
19,COc1ccc(S(=O)(=O)N(C(=O)c2ccncc2)c2ccc3oc4c(c3c2)CCCC4)cc1,-5.37
20,CCC(=O)N1c2ccc(S(=O)(=O)CCC(=O)N3CCn4c3nc3ccccc34)cc2CC1C (stereo not shown),1.31
21,Cc1cccc(OCCSc2ncnc3nc[nH]c23)c1,-1.22
22,Nc1c(C(=O)N2CCOCC2)sc2nc3c(cc12)CCC3,5.1
23,CCOc1ccc(NC(=S)N2CCCN(Cc3cc(C)ccc3C)C2)cc1,-57.8
24,O=c1[nH]c2ccc(Cl)cc2c(-c2ccccc2)c1N1CCN(CCO)CC1,-64.6
25,Cc1sc(NC(=O)c2cc(-c3ccccc3)nc3ccccc23)c(C(N)=O)c1C,6.09
